Molecular target: T1, endogenous agrin-α3Na+/K+-ATPase complex (Mus musculus, UniProt Q6PIC6)
T1 construct: a 110 kDa band characteristic of the native α3Na+/K+-ATPase; endogenous in cells; host or cells: cultured mouse cortical neurons; also cortical slices from 12-day-old mice
Method: Membrane impermeant chemical cross-linking agents BS^3 and DMA were used to stabilize the bond between agrin and its binding sites on cell surface membranes. Cultured neurons were washed briefly in PBS containing 10 mM EDTA followed by preincubation with one or more agrin fragment in PBS^2+ for 30 minutes at room temperature and then cooled on ice prior to addition of a 10× solution of cross-linking agent to a final concentration of 0.1 mM. The cross-linking reaction was allowed to proceed for 30 minutes after which any unreacted cross-linker was quenched and removed by washing with ice cold PBS^2+ containing 50 mM ethanolamine. For immunoblot analysis, cells were scraped into ice-cold TI buffer (20 mM Tris, pH 7.4; 10 mM EDTA; protease inhibitors (Sigma, P8340)) then Dounce homogenized and membrane fraction recovered by centrifugation. For the immunoprecipitation studies, cells were scraped and homogenized in TI buffer containing 150 mM NaCl and 0.5% Triton X-100. Cell extracts were cleared by centrifugation and aliquots of the detergent soluble fraction incubated with the appropriate antibody at 4° C. overnight. Antigen-antibody complexes were precipitated with either protein A or protein G and resuspended in SDS-PAGE sample buffer for immunoblot analysis. […]

B1: C-Ag15: 15-kD COOH-terminal fragment of agrin created by deleting 37 amino acids from the NH2 terminus of C-Ag20, SEQ. ID NO. 3 (protein)
chain: MDPWIGKAAERADYMALAIVDGHLQLSYDLASQPVVLRSTVKVNTNRWLRVRAHREHREGSLQVGNEAPVTSSSPLGATQLDTDGALWLGGLQKLPVGQPLPKAYGTGFVGCLRNVVGHRQLHLLEDAVTKPELRPCPTLNSKLGPEQKLISEEDLNSAVDHHHHHH
modifications: Synthetically produced sequence
  formation of endogenous agrin-α3Na+/K+-ATPase complex: blocked
